# Results: the supplement of paper PMC8728848
# The other results are listed elsewhere or left out.
# What was measured:
# Experiment in all cases: glycan array binding signal (z-score within array); higher = stronger binding
# Settings in all cases: glycan notation: IUPAC condensed, linker removed
# [1] = target: Gal(b1-4)GlcNAc(a1-6)Gal(b1-4)GlcNAc
# In short: (§1)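 The binding signal is a Z-score computed within each array and averaged over linkers. Arrays of the same protein sequence at different concentrations or buffers were also averaged together. Data originate from 3228 arrays in the Consortium for Functional Glycomics database, kept only where the protein sequence was available.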
# [2] = target: Gal(b1-4)GlcNAc(b1-2)Man(a1-3)Man(b1-4)GlcNAc(b1-4)GlcNAc
# In short: as §1
# [3] = target: Gal(b1-4)GlcNAc(b1-2)Man(a1-3)[Gal(b1-4)GlcNAc(b1-2)Man(a1-6)]Man(b1-4)GlcNAc(b1-4)GlcNAc
# In short: as §1
# [4] = target: Gal(b1-4)GlcNAc(b1-2)Man(a1-3)[Gal(b1-4)GlcNAc(b1-2)Man(a1-6)]Man(b1-4)GlcNAc(b1-4)[Fuc(a1-6)]GlcNAc
# In short: as §1
# [5] = target: Gal(b1-4)GlcNAc(b1-2)Man(a1-3)[Man(a1-6)]Man(b1-4)GlcNAc(b1-4)GlcNAc
# In short: as §1
# [6] = target: Gal(b1-4)GlcNAc(b1-2)Man(a1-6)Man(b1-4)GlcNAc(b1-4)GlcNAc
# In short: as §1
# [7] = target: Gal(b1-4)GlcNAc(b1-2)Man(a1-6)[Man(a1-3)]Man(b1-4)GlcNAc(b1-4)GlcNAc
# In short: as §1
# [8] = target: Gal(b1-4)GlcNAc(b1-2)[Gal(b1-4)GlcNAc(b1-4)]Man(a1-3)[Gal(b1-4)GlcNAc(b1-2)Man(a1-6)]Man(b1-4)GlcNAc(b1-4)GlcNAc
# In short: as §1
# [9] = target: Gal(b1-4)GlcNAc(b1-3)Gal(b1-3)GlcNAc
# In short: as §1
# [10] = target: Gal(b1-4)GlcNAc(b1-3)Gal(b1-4)Glc
# In short: as §1
# [11] = target: Gal(b1-4)GlcNAc(b1-3)Gal(b1-4)GlcNAc
# In short: as §1
# [12] = target: Gal(b1-4)GlcNAc(b1-3)Gal(b1-4)GlcNAc(b1-3)Gal(b1-4)GlcNAc
# In short: as §1
# [13] = target: Gal(b1-4)GlcNAc(b1-3)Gal(b1-4)[Fuc(a1-3)]GlcNAc(b1-3)Gal(b1-4)[Fuc(a1-3)]GlcNAc
# In short: as §1
# [14] = target: Gal(b1-4)GlcNAc(b1-3)GalNAc
# In short: as §1
# [15] = target: Gal(b1-4)GlcNAc(b1-3)[Gal(b1-4)GlcNAc(b1-6)]Gal(b1-4)GlcNAc
# In short: as §1
# [16] = target: Gal(b1-4)GlcNAc(b1-3)[GlcNAc(b1-6)]Gal(b1-4)GlcNAc
# In short: as §1
# [17] = target: Gal(b1-4)GlcNAc(b1-6)Gal(b1-4)GlcNAc
# In short: as §1
# [18] = target: Gal(b1-4)GlcNAc(b1-6)Gal(b1-4)GlcNAc(b1-6)GalNAc
# In short: as §1
# [19] = target: Gal(b1-4)GlcNAc(b1-6)GalNAc
# In short: as §1
# [20] = target: Gal(b1-4)GlcNAc(b1-6)[Gal(b1-3)]GalNAc
# In short: as §1
# [21] = target: Gal3S(b1-3)GalNAc
# In short: as §1
# [22] = target: Gal3S(b1-3)GlcNAc
# In short: as §1
# [23] = target: Gal3S(b1-3)[Fuc(a1-4)]GlcNAc
# In short: as §1
# [24] = target: Gal3S(b1-4)Glc
# In short: as §1
# [25] = target: Gal3S(b1-4)Glc6S
# In short: as §1
# [26] = target: Gal3S(b1-4)GlcNAc
# In short: as §1
# [27] = target: Gal3S(b1-4)GlcNAc6S
# In short: as §1
# [28] = target: Gal3S(b1-4)[Fuc(a1-3)]Glc
# In short: as §1
# [29] = target: Gal3S4S(b1-4)GlcNAc
# In short: as §1
# [30] = target: Gal3S6S(b1-4)GlcNAc
# In short: as §1
# [31] = target: Gal3S6S(b1-4)GlcNAc6S
# In short: as §1
# [32] = target: Gal4S(b1-4)GlcNAc
# In short: as §1
# [33] = target: Gal4S6S(b1-4)GlcNAc
# In short: as §1
# [34] = target: Gal6S(b1-4)Glc
# In short: as §1
# [35] = target: Gal6S(b1-4)Glc6S
# In short: as §1
# [36] = target: Gal6S(b1-4)GlcNAc
# In short: as §1
# [37] = target: Gal6S(b1-4)GlcNAc6S
# In short: as §1
# [38] = target: GalNAc(a1-3)Gal
# In short: as §1
# [39] = target: GalNAc(a1-3)GalNAc
# In short: as §1
# [40] = target: GalNAc(b1-3)Gal
# In short: as §1
# [41] = target: GalNAc(b1-3)Gal(a1-4)Gal(b1-4)GlcNAc
# In short: as §1
# [42] = target: GalNAc(b1-3)Gal(a1-4)Gal(b1-4)GlcNAc(b1-3)Gal(b1-4)Glc
# In short: as §1
# [43] = target: GalNAc(b1-3)GalNAc
# In short: as §1
# [44] = target: GalNAc(b1-4)GlcNAc
# In short: as §1
# [45] = target: GalNAc(b1-4)GlcNAc(b1-2)Man(a1-3)[GalNAc(b1-4)GlcNAc(b1-2)Man(a1-6)]Man(b1-4)GlcNAc(b1-4)GlcNAc
# In short: as §1
binder,measurement,setting,value
"Flo11 (Saccharomyces cerevisiae), Q1H8S8 (protein) MGSSHHHHHHSSGLVPRGSHMFPTALVPRGSSEGTSCNSIVNGCPNLDFNWHMDQQNIMQYTLDVTSVSWVQDNTYQITIHVKGKENIDLKYLWSLKIIGVTGPKGTVQLYGYNENTYLIDNPTDFTATFEVYATQDVNSCQVWMPNFQIQFEYLQGSAAQYASSWQWGTTSFDLSTGCNNYDNQGHSQTDFPGFYWNIDCDNNCGGTKSS",glycan array binding signal (z-score),[1],-0.498
same,glycan array binding signal (z-score),[2],-0.501
same,glycan array binding signal (z-score),[3],-0.498
same,glycan array binding signal (z-score),[4],-0.495
same,glycan array binding signal (z-score),[5],-0.496
same,glycan array binding signal (z-score),[6],-0.507
same,glycan array binding signal (z-score),[7],-0.506
same,glycan array binding signal (z-score),[8],-0.449
same,glycan array binding signal (z-score),[9],1.69
same,glycan array binding signal (z-score),[10],2.41
same,glycan array binding signal (z-score),[11],2.11
same,glycan array binding signal (z-score),[12],2.33
same,glycan array binding signal (z-score),[13],0.593
same,glycan array binding signal (z-score),[14],1.49
same,glycan array binding signal (z-score),[15],-0.507
same,glycan array binding signal (z-score),[16],-0.409
same,glycan array binding signal (z-score),[17],-0.501
same,glycan array binding signal (z-score),[18],-0.488
same,glycan array binding signal (z-score),[19],-0.318
same,glycan array binding signal (z-score),[20],-0.482
same,glycan array binding signal (z-score),[21],2.02
same,glycan array binding signal (z-score),[22],-0.496
same,glycan array binding signal (z-score),[23],-0.502
same,glycan array binding signal (z-score),[24],-0.501
same,glycan array binding signal (z-score),[25],-0.501
same,glycan array binding signal (z-score),[26],-0.499
same,glycan array binding signal (z-score),[27],-0.504
same,glycan array binding signal (z-score),[28],0.304
same,glycan array binding signal (z-score),[29],-0.499
same,glycan array binding signal (z-score),[30],-0.496
same,glycan array binding signal (z-score),[31],-0.494
same,glycan array binding signal (z-score),[32],-0.5
same,glycan array binding signal (z-score),[33],-0.489
same,glycan array binding signal (z-score),[34],-0.498
same,glycan array binding signal (z-score),[35],-0.491
same,glycan array binding signal (z-score),[36],-0.49
same,glycan array binding signal (z-score),[37],-0.459
same,glycan array binding signal (z-score),[38],-0.501
same,glycan array binding signal (z-score),[39],-0.487
same,glycan array binding signal (z-score),[40],3.63
same,glycan array binding signal (z-score),[41],4.27
same,glycan array binding signal (z-score),[42],2.75
same,glycan array binding signal (z-score),[43],1.53
same,glycan array binding signal (z-score),[44],-0.39
same,glycan array binding signal (z-score),[45],0.623
